Assay results from PubChem BioAssay AID504333 (National Center for Advancing Translational Sciences (NCATS), 2011).
The whole screen tested about 360,000 compounds, of which about 16,000 (4.4%) were called active. Inconclusive results, whose numbers are uncertain, are shown with a selection of clear calls. Calls follow the shape of the dose curve; as a rule, active = well fitted inhibition curve with a large enough effect; inconclusive = small, poorly fitted or top-dose-only effect; inactive = no such curve, though single readings can be large or run the other way. Potencies beside an inconclusive call are fits to weak or partial responses and may not hold up.

Biological target: Bromodomain adjacent to zinc finger domain protein 2B (Homo sapiens) (UniProt Q9UIF8)
Assay: qHTS Assay for Inhibitors of BAZ2B; also: nearly all actives have a fitted effect of over 60% in size
Conditions: AlphaScreen BAZ2B-H3K14Ac peptide displacement; activity change, negative = inhibition: at 114 µM (top of the series)
Summary of the method: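 Multi-concentration screen (max 110 uM) measuring displacement of acetylated histone H3 peptide from BAZ2B by AlphaScreen, using 50 nM protein, 50 nM peptide and 10 ug/mL streptavidin donor plus Ni-chelate acceptor beads.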
% is scaled to controls: 0 for no effect and ±100 for the full control effect; potency is read from the fitted curve at half-maximal effect; tags tell the direction and shape of the fitted curve.

Chain of UniProt Q9UIF8 (Q9UIF8 whole entry, looked up, the tested form may be a part): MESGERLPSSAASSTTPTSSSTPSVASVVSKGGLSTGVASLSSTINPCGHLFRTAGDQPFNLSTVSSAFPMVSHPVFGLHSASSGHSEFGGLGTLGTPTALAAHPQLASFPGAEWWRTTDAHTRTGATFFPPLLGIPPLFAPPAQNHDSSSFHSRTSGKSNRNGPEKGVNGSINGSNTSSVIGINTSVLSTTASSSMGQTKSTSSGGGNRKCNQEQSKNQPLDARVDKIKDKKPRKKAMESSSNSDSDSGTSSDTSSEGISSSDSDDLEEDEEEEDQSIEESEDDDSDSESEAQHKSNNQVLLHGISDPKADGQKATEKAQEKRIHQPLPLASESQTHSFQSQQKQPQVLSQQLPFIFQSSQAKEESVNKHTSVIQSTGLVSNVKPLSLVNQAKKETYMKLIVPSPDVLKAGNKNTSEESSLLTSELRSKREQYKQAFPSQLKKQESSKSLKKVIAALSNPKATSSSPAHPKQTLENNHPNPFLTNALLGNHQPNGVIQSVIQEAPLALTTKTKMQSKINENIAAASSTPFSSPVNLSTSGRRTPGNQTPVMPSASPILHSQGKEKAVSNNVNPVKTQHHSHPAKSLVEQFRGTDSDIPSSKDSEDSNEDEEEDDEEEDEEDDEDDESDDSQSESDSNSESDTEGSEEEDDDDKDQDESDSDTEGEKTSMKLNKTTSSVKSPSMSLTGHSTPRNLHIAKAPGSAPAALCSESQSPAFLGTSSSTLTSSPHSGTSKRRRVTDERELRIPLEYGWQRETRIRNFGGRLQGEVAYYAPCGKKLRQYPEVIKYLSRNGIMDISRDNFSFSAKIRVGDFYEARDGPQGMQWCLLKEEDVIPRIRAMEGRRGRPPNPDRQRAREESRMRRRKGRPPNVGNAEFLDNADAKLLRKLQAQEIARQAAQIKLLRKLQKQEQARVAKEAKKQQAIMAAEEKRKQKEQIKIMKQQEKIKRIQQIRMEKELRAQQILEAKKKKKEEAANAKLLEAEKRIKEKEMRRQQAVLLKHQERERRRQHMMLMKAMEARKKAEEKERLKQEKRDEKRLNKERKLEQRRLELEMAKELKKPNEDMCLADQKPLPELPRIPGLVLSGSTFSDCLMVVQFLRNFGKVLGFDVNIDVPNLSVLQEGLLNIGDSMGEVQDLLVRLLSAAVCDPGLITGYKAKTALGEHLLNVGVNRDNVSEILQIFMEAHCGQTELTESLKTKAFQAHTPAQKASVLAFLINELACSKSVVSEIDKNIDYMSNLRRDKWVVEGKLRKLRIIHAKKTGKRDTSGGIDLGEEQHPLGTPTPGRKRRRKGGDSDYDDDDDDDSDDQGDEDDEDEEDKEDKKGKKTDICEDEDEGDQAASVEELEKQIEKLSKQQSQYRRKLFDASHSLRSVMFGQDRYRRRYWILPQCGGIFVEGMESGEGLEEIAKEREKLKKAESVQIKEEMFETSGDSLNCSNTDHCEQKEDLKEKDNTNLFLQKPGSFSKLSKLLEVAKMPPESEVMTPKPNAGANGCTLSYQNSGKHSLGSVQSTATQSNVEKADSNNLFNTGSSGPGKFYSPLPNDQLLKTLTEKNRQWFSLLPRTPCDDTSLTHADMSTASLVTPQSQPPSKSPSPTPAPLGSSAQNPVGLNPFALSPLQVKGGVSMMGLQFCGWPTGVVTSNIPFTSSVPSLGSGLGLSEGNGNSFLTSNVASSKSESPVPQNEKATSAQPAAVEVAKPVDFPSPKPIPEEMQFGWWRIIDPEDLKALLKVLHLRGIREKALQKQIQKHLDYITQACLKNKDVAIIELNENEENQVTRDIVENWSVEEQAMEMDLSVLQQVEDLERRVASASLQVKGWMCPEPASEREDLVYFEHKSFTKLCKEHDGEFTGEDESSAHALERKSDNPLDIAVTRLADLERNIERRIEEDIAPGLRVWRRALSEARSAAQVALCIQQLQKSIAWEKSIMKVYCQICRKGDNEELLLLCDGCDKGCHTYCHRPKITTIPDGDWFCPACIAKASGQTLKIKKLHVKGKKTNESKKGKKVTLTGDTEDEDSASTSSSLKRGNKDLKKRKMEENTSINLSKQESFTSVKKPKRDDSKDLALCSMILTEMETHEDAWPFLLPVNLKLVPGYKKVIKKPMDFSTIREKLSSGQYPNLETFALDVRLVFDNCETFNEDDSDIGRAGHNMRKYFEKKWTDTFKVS

SMILES | Potency | activity change, negative = inhibition
O=C(Cc1ccccn1)Nc1ccccc1 | inconclusive: 89.1 µM [inhibitor, single point] | –
CCC(=O)N(c1nnc(SCC(=O)Nc2ccccc2Cl)s1)C1CC1 | – | inactive: -2.86%
NCCCNC(=O)c1ccc(/C=N/O)nc1 | active: 22.4 µM | –
COC(=O)c1ccc(COc2cc([N+](=O)[O-])cc3cccnc23)o1 | inconclusive: 79.4 µM [inhibitor, single point] | –
COc1cc(/C=N/N2CCN(C3c4ccccc4-c4ccccc43)CC2)cc(OC)c1O | active: 11.2 µM | –
c1cc(CNC23CC4CC(CC(C4)C2)C3)ccn1 | inconclusive: 89.1 µM [inhibitor, single point] | –
O=C(CCCCCn1c(=O)[nH]c2ccccc2c1=O)NCCc1ccccc1 | – | inactive: 2.91%
Cc1ccc(OCC(=O)NNC(=O)[C@@H]2CCCC[C@@H]2C(=O)O)c(Br)c1 | – | inactive: -13.5%
S=C1NC2(CCCC2)Nc2ccccc21 | inconclusive: 50.1 µM [inhibitor, partial curve] | –
Cc1nc(N/N=C/c2ccc(O)cc2O)cc(N2CCOCC2)n1 | active: 44.7 µM | –
CCc1ccc(C2N=C(N)Nc3nc4ccccc4n32)cc1 (stereo not given) | inconclusive: 56.2 µM [inhibitor, partial curve, poor fit] | –
CN(C)c1nc(-c2cn(CCC#N)c3ccccc23)cs1 | inconclusive: 50.1 µM [inhibitor, partial curve] | –
COc1cc(/C=N/Nc2cccc(C)c2)cc(Br)c1O | active: 44.7 µM | –
Cc1nnc(SCCCn2c(N3CCN(c4ccccc4)CC3)nc3c2c(=O)[nH]c(=O)n3C)s1 | inconclusive: 100 µM [inhibitor, single point] | –
CCCC(CCC)c1nc2ccncc2[nH]1 | inconclusive: 89.1 µM [inhibitor, single point] | –
CCc1ccc(S(=O)(=O)NCc2cn3c(C)csc3n2)s1 | – | inactive: 3.2%
c1ccc(OCc2nnc3sc(-c4cccs4)nn23)cc1 | inconclusive: 89.1 µM [inhibitor, single point] | –
CCOC(=O)c1cc(NC(=O)c2ccc(C)cc2)c(=O)n2c1oc1ccccc12 | – | inactive: -17.8%
Cc1cc([N+](=O)[O-])ccc1NC(=O)CN1CCN(Cc2ccccc2)CC1 | inconclusive: 89.1 µM [inhibitor, single point] | –
O=C(NC(Cc1ccccc1)C(=O)O)c1cccnc1Cl (stereo not given) | – | inactive: 1.1%
O=C(NCc1ccccc1)C(=O)NCC1OCCCN1S(=O)(=O)c1cccs1 (stereo not given) | inconclusive: 79.4 µM [inhibitor, partial curve] | –
Cc1ccc(OCC(=O)NNC(=O)C2CCC2)cc1C | – | inactive: -4.33%
CN(Cc1c(F)cccc1Cl)C(=O)c1ccc(NS(=O)(=O)c2ccc3[nH]c(=O)[nH]c3c2)cc1 | – | inactive: -6.38%
COc1ccc(CNC(=O)C2CCN(S(=O)(=O)c3ccc(-c4nn[nH]n4)cc3)CC2)cc1 | inconclusive: 89.1 µM [inhibitor, single point] | –
COc1cccc(C(=O)Nc2nc3c(s2)CCCC3)c1 | inconclusive: 79.4 µM [inhibitor, partial curve] | –

SMILES | Potency | activity change, negative = inhibition
CCSc1ccc([C@@H]2[C@H]3C(=O)N(C)C(=O)[C@H]3[C@]3(C(=O)OC)CCCCN23)cc1OC | inconclusive: 89.1 µM [inhibitor, single point] | –
Cc1nc(N)sc1N=Nc1ccccc1C(F)(F)F | active: 28.2 µM | –
Cn1nc([N+](=O)[O-])nc1S(C)(=O)=O | inconclusive: 79.4 µM [inhibitor, single point] | –
CCOc1cc(N2CCOCC2)c(OCC)cc1NC(=O)COC(=O)[C@@H]1CCCN1S(=O)(=O)c1ccccc1F | inconclusive: 50.1 µM [inhibitor, partial curve] | –
[O-][N+]1=C(c2cccs2)CN(O)C1 | inconclusive: 3.98 µM [inhibitor, single point] | –
CC1CCc2c(sc(NC(=O)/C=C/c3cccs3)c2C(=O)O)C1 (stereo not given) | inconclusive: 39.8 µM [inhibitor, partial curve] | –
CC(C)N(Cc1cnn(C)c1)C(=O)c1ccc(OC2CCN(Cc3ccccn3)CC2)cc1 | active: 89.1 µM | –
Cc1ccc(S(=O)(=O)N2CC3CCC2C3)cc1 (stereo not given) | – | inactive: -8.62%
CCCC1=C(C(=O)OCC)C(c2cc(Cl)cc(OC)c2OCc2ccccc2)NC(=O)N1 (stereo not given) | inconclusive: 89.1 µM [inhibitor, single point] | –
C=CCn1cc(/C=N/NC(=O)COc2cccc3cccnc23)c2ccccc21 | inconclusive: 89.1 µM [inhibitor, single point] | –
O=S(=O)(N/N=C\c1ccc(-c2ccccc2Cl)o1)c1ccccc1 | inconclusive: 89.1 µM [inhibitor, single point] | –
Cc1ccc(CN(Cc2ccco2)C(=S)NCC(=O)NC2CC2)cc1 | – | inactive: -34.3%
CC1CCN(CCCCOc2cccc(C(C)C)c2)CC1 | inconclusive: 79.4 µM [inhibitor, partial curve] | –
CC(C)CC(=O)Nc1ccc(Nc2ccccc2)cc1 | inconclusive: 79.4 µM [inhibitor, single point] | –
O=C(CN1C(=O)/C(=C\c2ccccc2Cl)Sc2ccccc21)NCCCN1CCOCC1 | inconclusive: 12.6 µM [inhibitor, partial curve] | –
C/C(=C\C(=O)c1c(O)cc(C)oc1=O)N(C)C | – | inactive: -7.67%
O=C(OCC(=O)N1CCN(Cc2ccccc2)CC1)c1ccc(Cl)cc1 | inconclusive: 70.8 µM [inhibitor, single point] | –
CC(=O)Nc1ccc(S(=O)(=O)N2CCC(N3CCN(Cc4ccc(C)cc4)C(=O)C3=O)CC2)cc1 | inconclusive: 89.1 µM [inhibitor, single point] | –
CCCS(=O)(=O)NCc1cn2c(C)csc2n1 | – | inactive: 9.12%
CCc1ccc(CN(Cc2ccco2)c2cnc(S(C)(=O)=O)nc2C(=O)Nc2ccc(C)c(Cl)c2)cc1 | – | inactive: 11%
COC(=O)c1ccc(-n2c(C)cc(C(=O)CSc3ccc(NC(C)=O)cc3)c2C)cc1 | inconclusive: 50.1 µM [inhibitor, partial curve] | –
CC1(C)Cc2c(sc(NC(=O)C(=O)N3CCCCC3)c2C(N)=O)CO1 | inconclusive: 89.1 µM [inhibitor, partial curve] | –
COc1ccc(Cn2c(CCC(=O)Nc3ccc(Br)c(C)c3)nc3cccnc32)cc1 | – | inactive: -20%
Cc1ccc(C(=O)COC(=O)CCc2nc3ccccc3[nH]c2=O)cc1C | inconclusive: 89.1 µM [inhibitor, single point] | –
O=[N+]([O-])c1ccc(-c2cn(-c3ccc(Cl)cc3)c(=S)[nH]2)cc1 | – | inactive: 6.35%

SMILES | Potency | activity change, negative = inhibition
Cc1[nH]c2ccccc2c1C(c1ccccn1)N1CCCC1 (stereo not given) | – | inactive: -24.3%
Cc1c(C(=O)NCCc2ccccc2)oc2ccc(S(=O)(=O)N3CCOCC3)cc12 | – | inactive: 6.61%
O=C(Cn1c2[n+](c3ccc(C(F)(F)F)cc31)CCCCC2)Nc1ccccc1 | – | inactive: -0.458%
CCc1ccc(NC(=O)Cc2c(C(=O)O)n(C)c3ccccc23)cc1 | active: 28.2 µM | –
CCn1c(CNc2ccc(Cl)cc2)nnc1SCCN1CCCCC1 | – | inactive: 10.8%
CCCCN1C(=O)C(O)=C(C(C)=O)C1c1ccc(OC)cc1OC (stereo not given) | active: 50.1 µM | –
CCCSc1nc(C)c(CC(=O)OCC)c(=O)[nH]1 | inconclusive: 100 µM [inhibitor, single point] | –
CCn1c2ccccc2c2cc(NC(=O)CN(C)CC(=O)Nc3ccc(N4CCOCC4)cc3)ccc21 | active: 28.2 µM | –
Cc1cc(C)c(NC(=O)CN2CCN(C)CC2)c(C)c1 | – | inactive: -1.35%
CCc1ccc(NC(=O)CSc2nnc(Cc3cccn3C)n2-c2ccc(F)cc2)cc1 | inconclusive: 44.7 µM [inhibitor, partial curve] | –
O=C(Nc1ccccc1F)c1ccc(O)c2ncccc12 | active: 20 µM | –
O=c1c2ccccc2ncn1-c1ccc(Cl)cc1[N+](=O)[O-] | inconclusive: 89.1 µM [inhibitor, single point] | –
CC(=O)c1c2c3c(cccc3n(C)c1=O)C(=O)c1ccccc1-2 | inconclusive: 79.4 µM [inhibitor, partial curve] | –
Cc1c(Br)c([N+](=O)[O-])nn1CC(=O)NCc1cccnc1 | – | inactive: 4.36%
CC(C)(C)N=C1NN=C(c2ccc(Cl)cc2)CS1 | inconclusive: 70.8 µM [inhibitor, partial curve] | –
O=C(CCl)NNC(=O)c1c(O)c2ccccc2[nH]c1=O | inconclusive: 50.1 µM [inhibitor, partial curve] | –
CCOc1ccc(Nc2nc(N)c([N+](=O)[O-])c(N3CCN(CC)CC3)n2)cc1 | active: 50.1 µM | –
C/C(=N/NC(=O)c1cc2ccccc2cc1O)C1C(=O)c2ccccc2C1=O | inconclusive: 35.5 µM [inhibitor, single point] | –
CCOc1ccc(NC(=O)Cn2cc(C(=O)c3ccc(F)cc3)c(=O)c3cc4c(cc32)OCO4)cc1 | – | inactive: -10.1%
Cc1ccc(-c2nnn(CC(=O)N(c3ccccc3)C(C(=O)NCC3CCCO3)c3cccs3)n2)o1 (stereo not given) | – | inactive: -8.23%
CCOc1ccc(NC(=O)NC(C)c2c(-n3cccc3)sc3c2CCN(CC)C3)cc1 (stereo not given) | inconclusive: 50.1 µM [inhibitor, partial curve] | –
COc1cc(/C=C2\C(=O)N(c3ccc(NC(C)=O)cc3)N=C2c2ccccc2)ccc1O | active: 35.5 µM | –
COc1ccccc1NS(=O)(=O)NC(=O)c1c(C)[nH]c2ccccc12 | inconclusive: 79.4 µM [inhibitor, partial curve] | –
O=C(c1ccccc1)c1c(O)cc(-c2ccccc2)oc1=O | active: 56.2 µM | –
COC(=O)c1cc(CNC(=O)c2ccc(N3CCCC3)c([N+](=O)[O-])c2)ccc1OC | inconclusive: 44.7 µM [inhibitor, partial curve] | –
